Where two headings read alike, the source gives them in different places.
What was measured:
[1] = substrate: O=c1cc(C(F)(F)F)c2ccc(OCc3ccccc3)cc2o1
[2] = substrate: O=c1cc(C(F)(F)F)c2ccc(OCc3ccccc3)cc2o1; experiment: purified protein, by the assay type

B1: CYP3A4 (WT) (Homo sapiens) (protein)
chain: MALIPDLAMETWLLLAVSLVLLYLYGTHSHGLFKKLGIPGPTPLPFLGNILSYHKGFCMFDMECHKKYGKVWGFYDGQQPVLAITDPDMIKTVLVKECYSVFTNRRPFGPVGFMKSAISIAEDEEWKRLRSLLSPTFTSGKLKEMVPIIAQYGDVLVRNLRREAETGKPVTLKDVFGAYSMDVITSTSFGVNIDSLNNPQDPFVENTKKLLRFDFLDPFFLSITVFPFLIPILEVLNICVFPREVTNFLRKSVKRMKESRLEDTQKHRVDFLQLMIDSQNSKETESHKALSDLELVAQSIIFIFAGYETTSSVLSFIMYELATHPDVQQKLQEEIDAVLPNKAPPTYDTVLQMEYLDMVVNETLRLFPIAMRLERVCKKDVEINGMFIPKGVVVMIPSYALHRDPKYWTEPEKFLPERFSKKNKDNIDPYIYTPFGSGPRNCIGMRFALMNMKLALIRVLQNFSFKPCKETQIPLKLSLGGLLQPEKPVVLKVESRDGTVSGA
B1 was tested, and the K0.5 [1] was 9.3 ± 0.4 µM and the kcat [1] was 0.000417 ± 8.33e-05 s⁻¹.

B2: K257A CYP3A4 (Homo sapiens; K257A) (protein)
chain: MALIPDLAMETWLLLAVSLVLLYLYGTHSHGLFKKLGIPGPTPLPFLGNILSYHKGFCMFDMECHKKYGKVWGFYDGQQPVLAITDPDMIKTVLVKECYSVFTNRRPFGPVGFMKSAISIAEDEEWKRLRSLLSPTFTSGKLKEMVPIIAQYGDVLVRNLRREAETGKPVTLKDVFGAYSMDVITSTSFGVNIDSLNNPQDPFVENTKKLLRFDFLDPFFLSITVFPFLIPILEVLNICVFPREVTNFLRKSVKRMAESRLEDTQKHRVDFLQLMIDSQNSKETESHKALSDLELVAQSIIFIFAGYETTSSVLSFIMYELATHPDVQQKLQEEIDAVLPNKAPPTYDTVLQMEYLDMVVNETLRLFPIAMRLERVCKKDVEINGMFIPKGVVVMIPSYALHRDPKYWTEPEKFLPERFSKKNKDNIDPYIYTPFGSGPRNCIGMRFALMNMKLALIRVLQNFSFKPCKETQIPLKLSLGGLLQPEKPVVLKVESRDGTVSGA
For B2, the K0.5 ([2]; other: K257A CYP3A4) was 8.4 ± 0.5 µM and the kcat ([2]; other: K257A CYP3A4) was 0.0006 ± 0.000133 s⁻¹.

B3: K266A CYP3A4 (Homo sapiens; K266A) (protein)
chain: MALIPDLAMETWLLLAVSLVLLYLYGTHSHGLFKKLGIPGPTPLPFLGNILSYHKGFCMFDMECHKKYGKVWGFYDGQQPVLAITDPDMIKTVLVKECYSVFTNRRPFGPVGFMKSAISIAEDEEWKRLRSLLSPTFTSGKLKEMVPIIAQYGDVLVRNLRREAETGKPVTLKDVFGAYSMDVITSTSFGVNIDSLNNPQDPFVENTKKLLRFDFLDPFFLSITVFPFLIPILEVLNICVFPREVTNFLRKSVKRMKESRLEDTQAHRVDFLQLMIDSQNSKETESHKALSDLELVAQSIIFIFAGYETTSSVLSFIMYELATHPDVQQKLQEEIDAVLPNKAPPTYDTVLQMEYLDMVVNETLRLFPIAMRLERVCKKDVEINGMFIPKGVVVMIPSYALHRDPKYWTEPEKFLPERFSKKNKDNIDPYIYTPFGSGPRNCIGMRFALMNMKLALIRVLQNFSFKPCKETQIPLKLSLGGLLQPEKPVVLKVESRDGTVSGA
With B3 the K0.5 ([2]; other: K266A CYP3A4) was 6.1 ± 0.1 µM and the kcat ([2]; other: K266A CYP3A4) was 0.000533 ± 5e-05 s⁻¹.
